Measurements published in US20150183871A1 (AbbVie / Abbott, published 2015).

T1: recombinant human BMP-2 protein (human, UniProt P12643 283-396)
T1 construct: Bought protein
T1 sequence (looked up): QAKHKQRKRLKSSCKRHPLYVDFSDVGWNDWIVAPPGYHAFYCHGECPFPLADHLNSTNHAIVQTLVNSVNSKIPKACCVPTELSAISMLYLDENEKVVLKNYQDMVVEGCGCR

T2: recombinant human BMP-4 protein (human, UniProt P12644 293-408)
T2 construct: Bought protein; also called bone morphogenetic protein 4 (R&D Systems #314-BP)
T2 sequence (looked up): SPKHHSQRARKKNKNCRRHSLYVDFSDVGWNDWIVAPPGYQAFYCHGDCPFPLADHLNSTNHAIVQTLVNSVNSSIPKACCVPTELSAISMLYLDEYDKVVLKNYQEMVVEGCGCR

T3: extracellular domain of the His-tagged human Neogenin protein (human, UniProt Q92859 34-1105)
T3 construct: extracellular domain; His-tagged
T3 sequence (looked up): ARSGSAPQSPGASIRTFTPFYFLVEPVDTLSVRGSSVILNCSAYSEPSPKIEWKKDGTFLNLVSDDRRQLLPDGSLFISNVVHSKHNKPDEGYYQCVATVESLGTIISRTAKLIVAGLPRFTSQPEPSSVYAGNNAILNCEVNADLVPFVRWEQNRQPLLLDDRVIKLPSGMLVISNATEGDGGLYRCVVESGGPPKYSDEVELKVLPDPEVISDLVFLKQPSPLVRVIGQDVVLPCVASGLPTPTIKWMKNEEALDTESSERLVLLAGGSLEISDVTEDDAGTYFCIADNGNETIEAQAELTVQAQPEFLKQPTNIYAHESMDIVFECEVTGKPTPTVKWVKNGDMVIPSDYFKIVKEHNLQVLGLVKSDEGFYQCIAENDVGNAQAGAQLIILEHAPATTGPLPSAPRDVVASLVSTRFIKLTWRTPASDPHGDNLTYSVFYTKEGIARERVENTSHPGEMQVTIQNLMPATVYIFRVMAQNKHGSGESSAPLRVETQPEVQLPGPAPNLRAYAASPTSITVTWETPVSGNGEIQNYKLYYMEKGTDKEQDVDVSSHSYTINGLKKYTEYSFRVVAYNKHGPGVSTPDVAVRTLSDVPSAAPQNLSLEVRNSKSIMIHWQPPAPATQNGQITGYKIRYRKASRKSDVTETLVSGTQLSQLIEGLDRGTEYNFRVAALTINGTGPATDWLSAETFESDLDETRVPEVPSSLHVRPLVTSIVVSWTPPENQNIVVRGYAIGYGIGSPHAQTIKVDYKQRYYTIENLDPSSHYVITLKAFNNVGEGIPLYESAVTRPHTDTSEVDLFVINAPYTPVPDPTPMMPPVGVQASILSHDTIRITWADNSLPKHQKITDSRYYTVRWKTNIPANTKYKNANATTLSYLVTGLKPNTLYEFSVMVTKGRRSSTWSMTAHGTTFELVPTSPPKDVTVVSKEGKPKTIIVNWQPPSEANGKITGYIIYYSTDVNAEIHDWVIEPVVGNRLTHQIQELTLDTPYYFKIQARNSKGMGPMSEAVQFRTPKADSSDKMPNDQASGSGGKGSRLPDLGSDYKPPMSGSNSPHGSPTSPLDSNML

B1: fc-coupled full length human RGM A (47-422) (Fc fusion)
chain: DAAQPARRARRTKLPCKILKCNSEFWSATSGSHAPASDDTPEFCAALRSYALCTRRTARTCRGDLAYHSAVHGIEDLMSQHNCSKDGPTSQPRLRTLPPAGDSQERSDSPEICHYEKSFHKHSATPNYTHCGLFGDPHLRTFTDRFQTCKVQGAWPLIDNNYLNVQVTNTPVLPGSAATATSKLTIIFKNFQECVDQKVYQAEMDELPAAFVDGSKNGGDKHGANSLKITEKVSGQHVEIQAKYIGTTIVVRQVGRYLTFAVRMPEEVVNAVEDWDSQGLYLCLRGCPLNQQIDFQAFHTNAEGTGARRLAAASPAPTAPETFPYETAVAKCKEKLPVEDLYYQACVFDLLTTGDVNFTLAAYYALEDVKMLHSNKDKLHLYERTRDLPGLNSADIEGRMD[… human IgG1 Fc …]
notes: the legends call the protein fc-coupled full length hRGM A fragment (47-422, counted on hRGM A); also called full length fc-conjugated hRGM A; Human RGM A-fc
B2: fc-coupled human RGM A light chain, fragment 0 (47-168) (Fc fusion)
chain: DAAQPARRARRTKLPCKILKCNSEFWSATSGSHAPASDDTPEFCAALRSYALCTRRTARTCRGDLAYHSAVHGIEDLMSQHNCSKDGPTSQPRLRTLPPAGDSQERSDSPEICHYEKSFHKHSATPNYTHCGLFGDLNSADIEGRMD[… human IgG1 Fc …]
notes: also called hRGM A light chain - fc; hRGMA 47-168/HuIgGFc

Experiments:
[1] = molecular target: T1, recombinant human BMP-2 protein; test: solid phase ELISA, coated BMP-2, figure legend
[2] = molecular target: T2, recombinant human BMP-4 protein; test: solid phase ELISA, coated BMP-4, figure legend
[3] = molecular target: T3, extracellular domain of the His-tagged …; test: solid phase ELISA, coated Neogenin

Binder | binding result [1] | binding result [2] | binding result [3]
B1 | binds | binds | binds
B2 | – | binds | –
